Patent publication US6403764

Tests used:
[1] = molecular target: T1, recombinant human IGFBP-3 (human, UniProt P17936); assay: competitive phage ELISA
T1 construct: mature; Secreted recombinant protein
Method: (§1) Phage particles were harvested and resuspended in PBS buffer as described in Lowman, H. B., "Phage Display of Peptide Libraries on Protein Scaffolds," in Cabilly, S. (ed.), *Combinatorial Peptide Library Protocols* (Humana Press Inc.: Totowa, N.J., 1998), pp. 249–264. Then phage concentrations were normalized to yield a maximal ELISA signal of 0.2–0.4 for each mutant (Lowman, in Cabilly, S. (ed.), supra). Threefold serial dilutions of soluble competitor were prepared on non-absorbent microtiter plates (Nunc, F, 96 wells) with binding buffer (0.5% TWEEN™ 20/PBS) containing phage at the previously-determined concentrations. The dilution range of competitor protein extended over six orders of magnitude, starting at 5 µM for IGFBP-1 and 500 nM for IGFBP-3. After blocking, the plates containing immobilized target were washed with 0.05% TWEEN™/PBS buffer and subsequently incubated with 80 µl/well of the premixed phage-competitor solutions for 1 hour at room temperature. […] Numbers in Table I represent mean±standard deviation of individually assessed $IC50$ values.
(§2) At least two different clones of every mutant were tested.

[2] = molecular target: T2, human IGFBP-1 (human, UniProt P08833 26-259); assay: competitive phage ELISA
T2 construct: mature; Secreted recombinant protein; also called IGFBP-I
T2 sequence (looked up): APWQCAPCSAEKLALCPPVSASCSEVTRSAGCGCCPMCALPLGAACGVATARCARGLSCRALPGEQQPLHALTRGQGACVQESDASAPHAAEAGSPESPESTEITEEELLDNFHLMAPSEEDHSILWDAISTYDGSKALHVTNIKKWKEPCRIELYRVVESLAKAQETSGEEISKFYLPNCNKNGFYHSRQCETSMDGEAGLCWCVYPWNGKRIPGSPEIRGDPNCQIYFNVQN
Method: as §1, §2

T1 sequence (P17936 28-291): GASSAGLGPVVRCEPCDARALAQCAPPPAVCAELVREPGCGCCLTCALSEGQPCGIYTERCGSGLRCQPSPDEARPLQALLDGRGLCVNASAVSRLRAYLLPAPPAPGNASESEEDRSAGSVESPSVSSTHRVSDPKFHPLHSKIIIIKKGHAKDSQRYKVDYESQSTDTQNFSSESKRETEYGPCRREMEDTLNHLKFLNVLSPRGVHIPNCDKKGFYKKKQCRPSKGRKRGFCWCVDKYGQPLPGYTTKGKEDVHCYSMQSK

B1: IGF-I V70A displayed on phage (ligand, not shown: large carriers; small tags and cut ends)
chain: not shown
notes: On phage; single mutant V70A of the G1S-A70V template, which restores native A70
IC50 [1]: 0.68 nM
IC50 [2]: 19.1 nM
